Data published in article PMC10323441.
Results are given in words; binding and its absence hold for the method and conditions named. Binding seen in cells or lysates may run through a third protein. Some results given as binding are weak or reduced against the parent protein; the word gives no strength. Where a sequence is shown, tags or fusion partners need not be part of it.

Amino acid sequences for entries named in this document (tags omitted).
UniProt O75838: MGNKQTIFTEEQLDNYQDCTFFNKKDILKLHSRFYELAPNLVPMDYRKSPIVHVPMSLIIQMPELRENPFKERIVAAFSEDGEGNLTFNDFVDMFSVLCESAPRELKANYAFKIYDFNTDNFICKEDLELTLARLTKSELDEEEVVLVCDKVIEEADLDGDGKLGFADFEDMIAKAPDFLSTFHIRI
UniProt Q12798: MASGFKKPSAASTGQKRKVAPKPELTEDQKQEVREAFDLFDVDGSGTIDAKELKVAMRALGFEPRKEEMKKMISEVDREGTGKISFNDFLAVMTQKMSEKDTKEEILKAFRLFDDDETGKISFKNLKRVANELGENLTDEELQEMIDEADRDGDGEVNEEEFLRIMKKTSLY

Assays:
[1] = biological target: RFP-tagged CIB2 (mRFP-CIB2) (human (from the printed UniProt entry)) (UniProt O75838); assay: co-IP; RFP-Trap agarose beads; lysates of co-transfected HEK293T cells (RFP-tagged protein or RFP alone with HA- or SF-tagged protein); 10 mM Tris-Cl pH 7.5, 150 mM NaCl, 0.5 mM EDTA; 2 h at 4°C; Western blot
[2] = biological target: T1, FLAG-myc-tagged CCT3 (human (from the printed UniProt entry)) (UniProt P49368); assay: co-IP; anti-FLAG M2 beads hold FLAG-myc-CCT3; lysates of co-expressing HEK293T cells in TAP lysis buffer; 1 h at 4°C; Western blot with antibodies against FLAG and HA
T1 sequence: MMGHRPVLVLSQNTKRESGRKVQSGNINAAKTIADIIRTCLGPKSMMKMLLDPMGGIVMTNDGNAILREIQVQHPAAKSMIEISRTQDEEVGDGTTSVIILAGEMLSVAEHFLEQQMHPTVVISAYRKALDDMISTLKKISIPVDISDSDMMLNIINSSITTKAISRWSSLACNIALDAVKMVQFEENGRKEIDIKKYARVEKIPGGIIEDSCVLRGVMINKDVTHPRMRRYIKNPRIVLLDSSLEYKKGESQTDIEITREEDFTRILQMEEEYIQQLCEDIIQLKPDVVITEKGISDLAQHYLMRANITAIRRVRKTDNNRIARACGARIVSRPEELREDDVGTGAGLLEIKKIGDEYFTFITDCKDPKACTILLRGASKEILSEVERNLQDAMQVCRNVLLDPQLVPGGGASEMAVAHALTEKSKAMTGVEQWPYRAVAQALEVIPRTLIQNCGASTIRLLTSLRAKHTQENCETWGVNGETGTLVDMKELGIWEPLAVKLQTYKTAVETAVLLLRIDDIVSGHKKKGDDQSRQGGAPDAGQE

[3] = biological target: T2, 3xHA-tagged C-terminal fragment of ADGRV1 (3xHA-ADGRV1_CTF) (human) (UniProt Q8WXG9); assay: co-IP; reciprocal: anti-HA agarose beads hold the 3xHA-tagged protein; lysates of co-expressing HEK293T cells; Western blot
T2 sequence: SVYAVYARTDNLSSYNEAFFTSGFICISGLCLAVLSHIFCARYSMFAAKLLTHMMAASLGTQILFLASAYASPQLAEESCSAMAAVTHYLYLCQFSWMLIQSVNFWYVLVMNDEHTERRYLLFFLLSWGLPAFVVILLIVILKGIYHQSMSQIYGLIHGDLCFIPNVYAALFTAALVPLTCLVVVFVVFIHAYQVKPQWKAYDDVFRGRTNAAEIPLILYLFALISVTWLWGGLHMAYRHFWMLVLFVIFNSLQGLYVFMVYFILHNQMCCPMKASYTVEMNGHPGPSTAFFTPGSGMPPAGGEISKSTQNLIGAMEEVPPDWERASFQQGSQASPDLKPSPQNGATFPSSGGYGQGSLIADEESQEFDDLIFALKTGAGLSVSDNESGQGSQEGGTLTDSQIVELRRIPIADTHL

3xHA-tagged centrin 1 = 3xHA-tagged centrin 1 (UniProt Q12798); assay: as above
[4] = biological target: T3, 3xHA-tagged intracellular domain of ADGRV1 (ADGRV1_ICD) (human) (UniProt Q8WXG9); assay: as above
T3 sequence: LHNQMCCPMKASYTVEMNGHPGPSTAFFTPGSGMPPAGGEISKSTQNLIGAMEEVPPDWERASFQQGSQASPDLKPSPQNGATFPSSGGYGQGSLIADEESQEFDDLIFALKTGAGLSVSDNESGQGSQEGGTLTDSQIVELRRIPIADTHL

B1: 3xHA-tagged C-terminal fragment of ADGRV1 (3xHA-ADGRV1_CTF) (domain or fragment, UniProt Q8WXG9-1 5891-6306)
chain: SVYAVYARTDNLSSYNEAFFTSGFICISGLCLAVLSHIFCARYSMFAAKLLTHMMAASLGTQILFLASAYASPQLAEESCSAMAAVTHYLYLCQFSWMLIQSVNFWYVLVMNDEHTERRYLLFFLLSWGLPAFVVILLIVILKGIYHQSMSQIYGLIHGDLCFIPNVYAALFTAALVPLTCLVVVFVVFIHAYQVKPQWKAYDDVFRGRTNAAEIPLILYLFALISVTWLWGGLHMAYRHFWMLVLFVIFNSLQGLYVFMVYFILHNQMCCPMKASYTVEMNGHPGPSTAFFTPGSGMPPAGGEISKSTQNLIGAMEEVPPDWERASFQQGSQASPDLKPSPQNGATFPSSGGYGQGSLIADEESQEFDDLIFALKTGAGLSVSDNESGQGSQEGGTLTDSQIVELRRIPIADTHL
- binding [1]: binds
- binding [2]: binds

B2: FLAG-myc-tagged CCT3 (protein, UniProt P49368-1 1-545)
chain: MMGHRPVLVLSQNTKRESGRKVQSGNINAAKTIADIIRTCLGPKSMMKMLLDPMGGIVMTNDGNAILREIQVQHPAAKSMIEISRTQDEEVGDGTTSVIILAGEMLSVAEHFLEQQMHPTVVISAYRKALDDMISTLKKISIPVDISDSDMMLNIINSSITTKAISRWSSLACNIALDAVKMVQFEENGRKEIDIKKYARVEKIPGGIIEDSCVLRGVMINKDVTHPRMRRYIKNPRIVLLDSSLEYKKGESQTDIEITREEDFTRILQMEEEYIQQLCEDIIQLKPDVVITEKGISDLAQHYLMRANITAIRRVRKTDNNRIARACGARIVSRPEELREDDVGTGAGLLEIKKIGDEYFTFITDCKDPKACTILLRGASKEILSEVERNLQDAMQVCRNVLLDPQLVPGGGASEMAVAHALTEKSKAMTGVEQWPYRAVAQALEVIPRTLIQNCGASTIRLLTSLRAKHTQENCETWGVNGETGTLVDMKELGIWEPLAVKLQTYKTAVETAVLLLRIDDIVSGHKKKGDDQSRQGGAPDAGQE
- binding [3]: binds
- binding (3xHA-tagged centrin 1): no binding
- binding [4]: no binding

B3: 3xHA-tagged intracellular domain of ADGRV1 (ADGRV1_ICD) (domain or fragment, UniProt Q8WXG9-1 6155-6306)
chain: LHNQMCCPMKASYTVEMNGHPGPSTAFFTPGSGMPPAGGEISKSTQNLIGAMEEVPPDWERASFQQGSQASPDLKPSPQNGATFPSSGGYGQGSLIADEESQEFDDLIFALKTGAGLSVSDNESGQGSQEGGTLTDSQIVELRRIPIADTHL
- binding [2]: no binding
